# Laboratory results reported in publication PMC4336329 (PLoS ONE, 2015).
# Hit rate of the full screen: of about 310,000 compounds, about 14,000 (4.5%) showed an effect of 50% or more. The effect is printed as a negative number. The list shows a part of the results.
# Target: human ether-à-go-go-related gene (hERG) potassium channel (human, UniProt Q12809)
# Experiment: primary screen, population patch clamp on CHO cells stably expressing hERG
# 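Further: peak tail current of the secondary pulse compared with the same well before compound.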
# human ether-à-go-go-related gene (hERG) potassium channel, sequence (Q12809 whole entry, looked up): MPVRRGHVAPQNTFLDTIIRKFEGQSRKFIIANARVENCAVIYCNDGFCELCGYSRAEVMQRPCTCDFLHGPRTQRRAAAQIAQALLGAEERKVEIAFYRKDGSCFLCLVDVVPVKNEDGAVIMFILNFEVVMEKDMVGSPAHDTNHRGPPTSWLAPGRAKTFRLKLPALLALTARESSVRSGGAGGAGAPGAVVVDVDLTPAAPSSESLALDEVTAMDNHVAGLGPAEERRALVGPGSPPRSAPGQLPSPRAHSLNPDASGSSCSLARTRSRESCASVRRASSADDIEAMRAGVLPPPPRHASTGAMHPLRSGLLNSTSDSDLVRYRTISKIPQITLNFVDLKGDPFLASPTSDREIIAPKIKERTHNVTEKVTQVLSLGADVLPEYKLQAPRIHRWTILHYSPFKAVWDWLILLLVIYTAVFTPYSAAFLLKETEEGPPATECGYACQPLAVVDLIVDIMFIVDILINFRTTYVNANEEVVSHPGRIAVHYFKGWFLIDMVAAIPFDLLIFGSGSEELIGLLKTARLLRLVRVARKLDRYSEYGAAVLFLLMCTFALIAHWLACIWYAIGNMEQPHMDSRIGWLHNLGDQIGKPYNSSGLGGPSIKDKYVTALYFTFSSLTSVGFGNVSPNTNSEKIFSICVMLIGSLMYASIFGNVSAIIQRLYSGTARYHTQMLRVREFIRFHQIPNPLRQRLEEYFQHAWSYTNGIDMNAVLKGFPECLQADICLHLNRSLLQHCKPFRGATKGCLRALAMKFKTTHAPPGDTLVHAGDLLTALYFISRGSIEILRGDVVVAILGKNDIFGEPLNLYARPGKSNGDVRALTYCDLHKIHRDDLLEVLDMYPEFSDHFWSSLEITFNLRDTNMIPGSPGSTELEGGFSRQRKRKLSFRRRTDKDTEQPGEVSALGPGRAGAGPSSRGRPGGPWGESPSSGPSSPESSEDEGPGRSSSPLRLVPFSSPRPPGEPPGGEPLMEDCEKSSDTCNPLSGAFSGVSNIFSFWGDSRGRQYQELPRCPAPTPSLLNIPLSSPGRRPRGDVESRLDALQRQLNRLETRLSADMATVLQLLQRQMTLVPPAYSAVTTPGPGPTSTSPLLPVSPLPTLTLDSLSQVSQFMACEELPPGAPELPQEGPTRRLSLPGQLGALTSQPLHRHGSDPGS
row,Compound,"hERG current change (%, negative = inhibition) at 10uM"
1,S=c1[nH]nc(COc2ccc(Cl)cc2)n1Cc1ccccc1,5.79%
2,COc1cccc(NC(=O)C(OC(=O)/C=C/c2ccc3c(c2)OCO3)c2ccccc2)c1 (stereo not drawn),-4.56%
3,COC(=O)Cn1c(-c2ccc(OC)cc2)c(-c2ccc(OC)cc2)nnc1=O,2.38%
4,O=C(O)c1cccc2c1C(=O)N(Cc1ccncc1)C2,18.7%
5,Cc1ccc(NC(=O)C2C3CC4OC(=O)C2C4C3)cc1Cl (stereo not drawn),3.85%
6,C/C(CC(=O)Nc1cccc(Cl)c1Cl)=N\NC(=O)c1ccccc1N,14.7%
7,COC(=O)C(Oc1ccc2c(-c3ccc(OC)cc3)cc(=O)oc2c1)c1ccccc1 (stereo not drawn),6.15%
8,Oc1c(I)cc(I)c2cccnc12,-18%
9,Cc1cccc(/N=C/c2c(O)cc(C)oc2=O)n1,11.7%
10,Cc1cccc(N(CC(=O)NC(C)C)C(=O)CCC(=O)Nc2ccccn2)c1,1.23%
11,Oc1ccc2n[nH]nc2c1,14.8%
12,COc1cccc(N2CCN(S(=O)(=O)c3ccc4c(c3)CC(C)N4C(=O)C3CC3)CC2)c1 (stereo not drawn),17.8%
13,Cn1c(NC(=O)c2ccccc2F)c(-c2cccs2)c(=O)c2ccccc21,-0.0867%
14,CCC(=O)NC(=S)Nc1ccc(NC(=O)CC)cc1,6.81%
15,Cc1cc(C)nc(NC(=NCc2ccc3c(c2)OCO3)NC(=O)Nc2ccccc2)n1,-4.02%
16,Cn1c(SCC(=O)Nc2ccccc2Br)nnc1-c1cnccn1,4.4%
17,Cc1ccc(NC(=O)C(C)Sc2n[nH]c(CNc3ccccc3)n2)cc1 (stereo not drawn),12.3%
18,CC1(C)Cc2c(sc3nc(SCC(=O)NCc4ccco4)n(-c4ccccc4)c(=O)c23)CS1,15.7%
19,COc1ccc(S(=O)(=O)CC(=O)Nc2nnc(C(F)(F)F)s2)cc1,-1.35%
20,Cc1cc(N2CCN(C)CC2)nc2ccc(NC(=S)NCCN3CCc4ccccc4C3)cc12,-23.7%
21,CC(C)(C)NC(=O)C(Cc1ccccc1)NS(=O)(=O)c1cccc2nsnc12 (stereo not drawn),-1.39%
22,Cc1cc(OC(=O)c2ccccc2Br)c([N+](=O)[O-])c(=O)[nH]1,16.7%
23,O=C(COC(=O)c1cccnc1)Nc1cccc(Cl)c1,9.52%
24,CCOC(=O)c1ccc(-c2ccc(/C=N/NC(=O)CN(c3ccccc3Br)S(C)(=O)=O)o2)cc1,15.9%
25,CNc1nc(SCc2ccccc2Cl)nc2c1CCCC2,6.51%
26,CSc1ccc(C2C(C#N)=C(N)Oc3c2ccc(=O)c2c(C)oc(C)c32)cc1 (stereo not drawn),13.4%
27,Cc1ccc(C(=O)Cc2nc3ccccc3[nH]2)cc1,2.85%

row,Compound,"hERG current change (%, negative = inhibition) at 10uM"
1,CNS(=O)(=O)c1cnccc1N1CCN(C)CC1,20.1%
2,Cc1cc(NC(=O)CSc2nc(Cc3ccccc3)c(C)[nH]2)no1,6.8%
3,O=C(COC(=O)Cc1ccc(F)cc1)Nc1ccc(Cl)cn1,10%
4,C[C@H](NC(=O)c1nc[nH]c1C(=O)NC1CCN(C(=O)OC(C)(C)C)CC1)C(=O)OC(C)(C)C,2.98%
5,O=C(CCC1CCCN(C(=O)C2=CCCC2)C1)N1CCN(c2ccccn2)CC1 (stereo not drawn),5.83%
6,Cc1ccc(NC(=O)C2Cc3ccccc3O/C2=N\O)cc1C (stereo not drawn),15.1%
7,Cc1ccsc1C(=O)N1CCN(c2ncc(C(F)(F)F)cc2Cl)CC1,-21%
8,Cc1ccc(OCCn2c(=O)oc3ccc(C)cc32)cc1,14.1%
9,Cc1cc(NC(=O)c2ccoc2C)ccc1Br,-31.8%
10,CCCCOC(=O)Cn1c(=N)n(CCC)c2ccccc21.Cl,-31.5%
11,COc1ccc(CC2(C)OC(c3ccc(C)c([N+](=O)[O-])c3)=NN2C(C)=O)cc1 (stereo not drawn),8.44%
12,CCOC(=O)C1CCN(C2CC(=O)N(c3ccc(OCC)cc3)C2=O)CC1 (stereo not drawn),-34.4%
13,COc1cc(NC(=O)c2cc(-c3ccco3)on2)cc(OC)c1OC,-2.28%
14,COc1ccc(-c2ccc([C@H]3[C@H]4C=CC[C@@H](C)[C@@H]4C(=O)N3Cc3ccccc3)c(F)c2)cc1C,10%
15,O=C(N/N=C/c1cccc(F)c1)c1c(O)c2c([nH]c1=O)CCCC2,-9.58%
16,CN(C)S(=O)(=O)c1ccc2oc(SCC(=O)c3c(N)n(C4CC4)c(=O)[nH]c3=O)nc2c1,14.3%
17,CCOC(=O)N1CCN(C(=O)c2ccc(C#CC3(O)CCCCC3)cc2)CC1,-7.86%
18,CC[C@]1(O)C[C@@H]2CN(CCc3c([nH]c4ccccc34)[C@@](C(=O)OC)(c3cc4c(cc3OC)N(C=O)[C@H]3[C@@](O)(C(=O)OC)[C@H](OC(C)=O)[C@]5(CC)C=CCN6CC[C@]43[C@@H]65)C2)C1.O=S(=O)(O)O,22%
19,O=C(COC(=O)CCC1CCCCC1)Nc1ccc(OC(F)F)cc1,3.35%
20,COC(=O)CSC1=C(C#N)C(c2ccc(C)cc2)C2=C(CCCC2=O)N1 (stereo not drawn),-10.5%
21,Cc1nc2nc(C)c(CCC(=O)NCCCN3CCN(c4cccc(Cl)c4)CC3)c(C)n2n1,5.45%
22,CC1(C)CC(=O)C2=C(C1)OC(N)=C([N+](=O)[O-])C2c1cccs1 (stereo not drawn),4.29%
23,O=S(=O)(c1ccc(F)cc1)N1CCN(c2ccccc2)CC1,-6.53%
24,CCN1CCC(N2CCN(c3ccc(F)cc3)CC2)CC1,-5.34%
25,CCN(Cc1cc2cc(C)ccc2[nH]c1=O)S(=O)(=O)c1ccccc1,-5.18%
26,COc1ccc(C2c3sc(=O)[nH]c3SC3C4CCC(C4)C23)cc1 (stereo not drawn),4.8%
27,Cc1cc(NC(=O)c2c(F)c(F)c(F)c(F)c2F)no1,-7.71%
